# Test results reported in article PMC4336329 (PLoS ONE, 2015).
# The campaign covered roughly 310,000 compounds. About 2,200 (0.71%) showed an effect of 50% or more. The effect is printed as a negative number. The list shows a part of the results.
# Molecular target: human ether-à-go-go-related gene (hERG) potassium channel (human, UniProt Q12809)
# Test: primary screen, population patch clamp on CHO cells stably expressing hERG
# Chain of human ether-à-go-go-related gene (hERG) potassium channel (Q12809 whole entry, looked up): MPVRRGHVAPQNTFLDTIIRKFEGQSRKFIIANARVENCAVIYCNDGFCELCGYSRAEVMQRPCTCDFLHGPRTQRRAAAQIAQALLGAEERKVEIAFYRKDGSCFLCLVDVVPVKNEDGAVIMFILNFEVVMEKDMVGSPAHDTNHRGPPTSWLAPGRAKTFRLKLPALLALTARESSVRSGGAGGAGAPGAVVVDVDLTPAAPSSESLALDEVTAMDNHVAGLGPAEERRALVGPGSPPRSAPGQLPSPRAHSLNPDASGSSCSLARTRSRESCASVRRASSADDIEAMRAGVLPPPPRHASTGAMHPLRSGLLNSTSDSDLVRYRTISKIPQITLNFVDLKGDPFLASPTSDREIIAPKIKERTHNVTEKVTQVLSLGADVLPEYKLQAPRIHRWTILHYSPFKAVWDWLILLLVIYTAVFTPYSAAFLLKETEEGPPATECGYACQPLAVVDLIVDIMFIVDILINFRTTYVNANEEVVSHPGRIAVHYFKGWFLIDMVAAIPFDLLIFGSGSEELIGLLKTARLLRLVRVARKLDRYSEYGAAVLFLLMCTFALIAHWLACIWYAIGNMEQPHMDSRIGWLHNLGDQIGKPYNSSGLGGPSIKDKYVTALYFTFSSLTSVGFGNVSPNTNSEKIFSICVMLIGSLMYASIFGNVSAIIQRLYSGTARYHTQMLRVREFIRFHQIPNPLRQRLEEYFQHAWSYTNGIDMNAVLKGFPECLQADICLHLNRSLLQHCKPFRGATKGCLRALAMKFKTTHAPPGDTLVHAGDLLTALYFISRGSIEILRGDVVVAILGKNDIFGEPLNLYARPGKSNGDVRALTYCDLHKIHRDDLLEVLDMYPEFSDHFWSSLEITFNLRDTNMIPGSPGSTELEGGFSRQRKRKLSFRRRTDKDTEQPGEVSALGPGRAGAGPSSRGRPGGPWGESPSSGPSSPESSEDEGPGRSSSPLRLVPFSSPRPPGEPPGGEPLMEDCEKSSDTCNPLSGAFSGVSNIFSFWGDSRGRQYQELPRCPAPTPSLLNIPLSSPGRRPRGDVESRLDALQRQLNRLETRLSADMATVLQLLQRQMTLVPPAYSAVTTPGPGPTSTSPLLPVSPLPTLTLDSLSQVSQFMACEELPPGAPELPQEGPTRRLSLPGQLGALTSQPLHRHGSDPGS
row,SMILES,"hERG current change (%, negative = inhibition) at 1uM [%]"
1,O=C(CN(C(=O)c1csnn1)c1ccccc1F)NCc1ccccc1,0.213
2,CCCN1C(=O)SC(CC(=O)Nc2ccc(Br)cc2)C1=O (centres unmarked),9.32
3,Cc1ccccc1NC(=O)c1cc([N+](=O)[O-])ccc1NCCN1C(=O)CCC1=O,11.7
4,CCOc1ccccc1NC(=S)NC(=O)C1CC1,12.2
5,O=C(Nc1ccc(F)cc1)N(Cc1cccs1)Cc1cc2cc3c(cc2[nH]c1=O)OCO3,16.6
6,Cc1cccc(N(C(=O)c2snc(C(N)=O)c2N)C(C(=O)NCc2ccccc2)c2ccncc2)c1 (centres unmarked),11.1
7,COc1ccccc1CNC(=O)C(CCSC)NC(=O)C1CCC(C)CC1 (centres unmarked),15.6
8,COc1ccccc1OCC(=O)NNC(=O)c1cccs1,7.84
9,NC(=O)C1CCCN(C(=O)c2ccc(NC(=O)c3cccs3)cc2)C1 (centres unmarked),0.985
10,COc1ccc(-c2c(C)nn3c(N4CCN(Cc5ccccc5)CC4)cc(C)nc23)cc1OC,10.6
11,CCCCn1c(N)c(N(CCOC)C(=O)C2CCN(S(=O)(=O)c3ccccc3)CC2)c(=O)[nH]c1=O,-6.82
12,CCSc1nc2ccccc2c(=O)n1OCC(=O)OC,11
13,O=C(c1ccc(N2CCOCC2)cc1[N+](=O)[O-])N1CCOCC1,9.97
14,CCn1nnc(NC(=O)c2cc3ccccc3o2)n1,8.64
15,COc1ccccc1/C=C/C(=O)NC(=S)N1CCOCC1,15.6
16,Cn1c(=O)n(C)c2cc(NS(=O)(=O)c3ccc(Br)s3)ccc21,14.5
17,Cc1[nH]c2ccccc2c1C(c1ccncc1)N1CCN(c2ccc(F)cc2)CC1 (centres unmarked),12.3
18,OCC[C@@H]1C[C@@H](O)[C@H](O)[C@@]2(Cc3ccccc3CCO2)O1,16.8
19,CCCCC(=O)Nc1ccc(N2CCCC2)cc1,6.04
20,C/C(Cc1ccccc1)=N\NC(=O)C1CCCCC1,6.6
21,CCN1CCN(C(=S)NCC(C)C)CC1.O=C(O)C(=O)O,14.5
22,COc1ccc(/C=C/C(=O)N(C(C)C)C(C)C)cc1Br,2.94
23,CC1(c2ccccc2)CC(C)(C)N2C(=O)Cc3cccc1c32 (centres unmarked),8.13

row,SMILES,"hERG current change (%, negative = inhibition) at 1uM [%]"
1,CC1C(=O)Nc2ccccc2N1C(=O)c1c(F)cccc1F (centres unmarked),5.05
2,CNS(=O)(=O)c1cccc(C(=O)OCC(=O)NC(C)CCc2ccccc2)c1 (centres unmarked),12.3
3,CCCOC1CCCN(C(=O)c2cc(Cl)c(Cl)cc2C(=O)O)C1 (centres unmarked),14.1
4,Cc1ccc(N(CC(=O)NC(C)c2ccccc2)S(=O)(=O)c2c(C)n[nH]c2C)cc1 (centres unmarked),-4.71
5,COc1ccc(/C(O)=C2\C(=O)C(=O)N(c3cc(C)on3)C2c2ccc(OC)c(OC)c2)cc1OC (centres unmarked),9.33
6,CCOC(=O)N1CC(=O)Nc2ccc(Br)cc2C1c1ccccc1 (centres unmarked),7.76
7,CCCC(=O)NC(Oc1ccc(C(C)=O)cc1)C(Cl)(Cl)Cl (centres unmarked),1.31
8,O=C(NCCC1CCCCN1S(=O)(=O)c1ccccc1)C(=O)NCc1ccco1 (centres unmarked),10.5
9,CCn1cc(C(=O)N(C)c2cc(C)ccc2OC)c2cc(OC)c(OC)cc2c1=O,10.8
10,O=S(=O)(Nc1ccc(Cl)cc1)c1cccc2nsnc12,9.14
11,COc1ccc(NC(=O)CCN2CCCCC2)cc1,10.6
12,Cc1cc(C)n(-c2ccc(C(=O)OCC(=O)Nc3ccccc3[N+](=O)[O-])cc2)n1,11.2
13,CC1CCCN(C(=O)c2ccccc2OC2CCN(S(C)(=O)=O)CC2)C1 (centres unmarked),10.3
14,CC(=O)c1ccc(NC(=O)CSc2nc(N3CCOCC3)nc(N3CCOCC3)n2)cc1,2.69
15,CN1CCN(CCc2nc3cc(NC(=O)COc4ccc(Cl)cc4)ccc3n2C)CC1,-7.52
16,CCN1/C(=C2\C(=O)N(C)C(=S)N2c2ccccc2)C=Cc2ccccc21,3.7
17,O=C(Cc1n[nH]c(=O)c2ccccc12)Nc1cc(Cl)ccc1-n1cncn1,-9.66
18,C/C(=C\C(=O)N1CCc2ccccc21)C(=O)O,13.3
19,Nc1cccc(CCc2ccncc2)c1,13.7
20,COc1ccc(C(=O)Nc2ccc(S(=O)(=O)NC(C)=O)cc2)cc1[N+](=O)[O-],9.41
21,CCCOc1cccc(C(=O)N/N=C/c2coc3ccccc3c2=O)c1,14.5
22,CC1(C)C2C/C(=N\O)C(C)(/[N+]([O-])=C/c3cccc([N+](=O)[O-])c3)CC21 (centres unmarked),7.22
23,Cc1ccc(-c2noc(CC(c3ccccc3)c3ccccc3)n2)cc1,3.71

row,SMILES,"hERG current change (%, negative = inhibition) at 1uM [%]"
1,O=C(NCCC(c1ccccc1)c1ccccc1)c1cnccn1,5.87
2,CC(=O)NC(Cc1c[nH]c2ccccc12)C(=O)Nc1ccc2c(c1)OCO2 (centres unmarked),10.9
3,COc1ccc(-c2cc(C(=O)N3CCC4(CC3)OCCO4)c3ccccc3n2)cc1,14.6
4,C[C@@H]1O[C@@H](OC[C@H]2O[C@@H](Oc3c(-c4ccc(O)c(O)c4)oc4cc(O)cc(O)c4c3=O)[C@H](O)[C@@H](O)[C@@H]2O)[C@H](O)[C@H](O)[C@H]1O,22.1
5,CN(C)NC(=O)C(NC(=O)c1ccc(N)cc1)C12CC3CC(CC(C3)C1)C2 (centres unmarked),10.8
6,O=Cc1cccn1-c1sc2c(c1C(=O)O)CCCC2,6.66
7,Cc1ccc(N2CC(C(=O)NCc3n[nH]c(=O)c4ccccc34)CC2=O)cc1C (centres unmarked),5.72
8,COC(=O)c1cc(OC)c(OCc2cc(C(=O)OC)oc2C)c(OC)c1,9.68
9,COc1ccc(OCCSc2nc(-c3ccccc3)cc(=O)[nH]2)cc1,15.4
10,CC(=O)Nc1ccc(NCC(=O)c2ccccc2)cc1,17.7
11,C=CCn1c(SCC#N)nnc1-c1ccc2ncccc2c1,8.7
12,Cc1c(CC(=O)N[C@@H](C)C(=O)O)c(=O)oc2cc3oc4c(c3cc12)CCCC4,18.7
13,CCOc1ccccc1-n1c(C)cc(C=O)c1C,1.15
14,Cc1nnc(SCc2ccccc2F)n1NCc1cccs1,5.71
15,O=C(O/N=C1\CCS(=O)(=O)c2sccc21)c1ccccc1,4.26
16,Cc1ccc(C)c(-c2nnc(NC(=O)COc3ccccc3)o2)c1,21.9
17,COc1cc(NC(=S)N2CCCC(CO)C2)c(OC)cc1Cl (centres unmarked),8.11
18,Oc1ccc(C2Nc3cccc4cccc(c34)N2)c(O)c1,17.4
19,CCCn1c2ccccc2c2nnc(SC(CC)C(=O)Nc3cc(C)on3)nc21 (centres unmarked),-0.818
20,COC(=O)c1cccc(NC(=O)CN2CCc3ccccc3C2)c1,11.9
21,Fc1ccc(CN2CCN3CCCC3C2C2CCCCC2)cc1F (centres unmarked),9.81
22,COc1cc2c(cc1OC)C(=S)NC1(CCCC1)C2,10.3
23,COc1ccccc1N1CCN(Cc2ccc(Cl)cc2Cl)CC1,-6.43

row,SMILES,"hERG current change (%, negative = inhibition) at 1uM [%]"
1,COc1ccc(NC(=O)COC(=O)Cc2ccccc2[N+](=O)[O-])cc1OC,18.8
2,COc1ccc(OC(C)C(=O)Nc2cccc(OC)c2)cc1 (centres unmarked),9.38
3,CCOc1ccc(C(=O)CN2C(=O)NC3(CCCCCC3)C2=O)cc1,9.88
4,NC(=O)c1ccc(NC(=O)CSc2nnc(-c3ccc4c(c3)OCO4)o2)cc1,8.8
5,COc1ccccc1NC(=O)N1CCN(c2ccccc2F)CC1,14.1
6,O=C(c1cccc(-c2ccc(O)cc2)c1)N1CCN(c2ccc(F)cc2)CC1,17.1
7,Cc1[nH]n(-c2ccccc2)c(=O)c1C(c1ccc([N+](=O)[O-])cc1)c1c(C)[nH]n(-c2ccccc2)c1=O,10.5
8,COCCNC(=S)N/N=C/c1ccc([N+](=O)[O-])cc1,12
9,CCOC(=O)c1c(NC(=O)Cn2nnc(-c3ccc(Cl)cc3)n2)sc(C)c1C,10.9
10,O=C(CSc1nc2ccccc2o1)Nc1nc(-c2ccccc2)c(-c2ccccc2)s1,9.62
11,CCCCN(C(=O)/C=C/c1ccco1)c1c(N)n(CC(C)C)c(=O)[nH]c1=O,21
12,Cc1ccc(C(=O)N2CCN(c3ccccc3)CC2)cc1C,9.14
13,COc1ccc(/C=N/N(Cc2ccccc2)c2ccccc2)cc1O,10.7
14,O=C(c1ccc(COc2ccc(Cl)cc2)cc1)N1CCCCC1,16.6
15,Cc1cc(NC(=O)c2cnn3c(C(F)(F)F)cc(-c4ccccc4)nc23)no1,1.77
16,O=C(Nc1cc(Cl)ccc1Cl)C1CC(=O)N(c2ccccc2)C1 (centres unmarked),11
17,Cc1ccc(-c2nn[nH]n2)cc1,-4.43
18,COC(=O)CC1SC(=O)NC1=Nc1cccc(C)c1 (centres unmarked),13.5
19,O.O=C(O)c1cc(=O)c2c(Cl)cc(Cl)cc2[nH]1,8.2
20,CCOC(=O)Cn1c(=O)n(Cc2ccco2)c(=O)c2ccc(C(=O)NC3CCCC3)cc21,-8.71
